# Results: publication PMC6212790
# The list shows a part of the results. At the low end of the ranking, values are background and their order means little.
# Biological target: T1, GST-Rok (full length) (UniProt O34857)
# T1 sequence: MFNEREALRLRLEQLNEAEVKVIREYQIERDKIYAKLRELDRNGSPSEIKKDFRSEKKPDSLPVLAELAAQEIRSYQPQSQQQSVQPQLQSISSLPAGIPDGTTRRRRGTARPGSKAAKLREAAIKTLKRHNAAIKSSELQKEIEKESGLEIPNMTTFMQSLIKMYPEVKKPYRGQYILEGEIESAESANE
# Assay: protein binding microarray;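 also: rank score from −0.5 (least bound) to 0.5 (best bound)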
# Conditions: Rok is a gene silencer of Bacillus subtilis; high values mean tight binding; most listed sequences are background and not binding sites; double strand, one strand shown
row,Sequence,binding signal [E-score]
1,CCAGAACC,-0.0913
2,CATATCCC,0.0535
3,GCCGTAAA,0.00925
4,GGCTGGCA,-0.322
5,ACACCACA,0.204
6,ATACCTCA,0.199
7,CCAAGAAG,-0.136
8,CACTACAC,0.0266
9,CTGAGCTA,0.0278
10,CGCTCGGC,-0.334
11,GGGCCACA,-0.27
12,CACAAGTG,-0.125
13,GGCCAATA,-0.0748
14,CGTGACCA,-0.0921
15,TAGCCACA,-0.165
16,CGGGAACA,-0.208
17,GACGTGGC,-0.152
18,AACCAAGG,-0.205
19,ACGATCCA,0.0221
20,ACTTAATC,0.191
21,CTCGCGAC,-0.227
22,GGAGTCTA,-0.0502
23,ACCCTTAT,0.0879
24,ACGTCGCA,-0.0971
25,CACTTACG,-0.0127

row,Sequence,binding signal [E-score]
1,ATCGTTCA,-0.0415
2,TCGCAAAA,0.0819
3,GCGATCTA,0.209
4,ACTAATGG,0.159
5,CGCTGTAC,-0.12
6,GCTTGTGA,0.000844
7,CAATTAGA,0.17
8,CGATGGCA,-0.126
9,ATCGGTTG,0.0574
10,AATTCATA,0.0902
11,TCCAAGAA,-0.00857
12,GTTTCATA,0.157
13,AGTATGGG,0.0114
14,CGCTTGTC,-0.146
15,CAATTTCC,0.0102
16,AAATTAGT,0.293
17,TCTTAGAA,-0.0577
18,ATCCTGGG,-0.0382
19,CTCATTCC,-0.169
20,GCATTTAA,0.115
21,GTTGACTA,0.226
22,CGTCAGTC,-0.141
23,CCAGGTAC,0.00748
24,CTGCTTTA,0.0813
25,CGAATACG,0.111

row,Sequence,binding signal [E-score]
1,CGCGGACC,-0.26
2,CACTCATA,0.0892
3,ACCCTATG,0.0674
4,AACGGCAA,0.101
5,ACAAACAC,0.159
6,CGATCACA,-0.059
7,ACTTAGCT,0.0091
8,GTCCATAA,0.112
9,AACTGCAC,0.109
10,CATTTGCC,-0.136
11,ACTCCACC,-0.123
12,GCCTATAA,0.158
13,CAAAACGC,-0.238
14,AGGCGAAA,-0.322
15,TCTTGGAA,-0.123
16,ACCTGTCC,-0.135
17,CGATTGCA,0.00566
18,AGTGATCC,-0.173
19,GACTAAGC,-0.101
20,CGAGTCTA,0.0197
21,ATCCAACC,-0.142
22,ACTTAGTA,0.252
23,ATCAATGA,0.0966
24,CATTTCAC,0.0165
25,GCCGCGCA,-0.193

row,Sequence,binding signal [E-score]
1,GCTGCCTA,0.0322
2,CCACATAG,0.15
3,ATAGGCCA,-0.0478
4,GCACTCAC,-0.0539
5,AGTACATC,0.215
6,ACGTCCTC,-0.22
7,AGAAACGA,0.0933
8,TCAGACGA,-0.112
9,CGCGAGCC,-0.174
10,AAGTGTCT,-0.075
11,AGGACTCG,-0.144
12,CGATTAGA,0.132
13,GCCACCTA,-0.101
14,GCAGAAGA,-0.0641
15,AGTGGAAT,0.04
16,GGAGTTGA,-0.142
17,CTATCAGC,0.119
18,AAAAAAGT,0.00546
19,GATGGTGC,-0.158
20,AACAGGTA,0.179
21,GTCCTCAC,-0.0182
22,ACGTGCCG,-0.0818
23,GTAAGGTA,0.18
24,CGGAGGAG,-0.327
25,ATCTCCAA,0.128

row,Sequence,binding signal [E-score]
1,GACGTCCC,-0.304
2,ATATTTCC,0.213
3,GGTTCGTA,-0.177
4,AGTGACGA,-0.0568
5,CCGAGCCG,-0.35
6,AAAGGGTA,-0.00849
7,AAGTCCTC,-0.0846
8,CGCCAAAA,-0.166
9,AACGTGAA,0.0673
10,CCCCTTGC,-0.406
11,CTTCTGCA,0.0619
12,CACCCGTC,-0.232
13,CGCGTACG,-0.0735
14,GGTGAACC,-0.216
15,CAGCACAC,-0.204
16,AATTACAG,0.324
17,GACCTGCA,-0.184
18,ACTGTAAG,-0.0329
19,ATCACCCG,0.00491
20,CCAGGAGA,-0.149
21,CCCGTGTA,-0.0222
22,AAGCGGCT,0.0263
23,GTATTTAA,0.285
24,AGAATCAA,0.138
25,AGAGCTCC,-0.195

row,Sequence,binding signal [E-score]
1,ATCCTATA,0.271
2,GCTAAGAC,-0.105
3,CCAAGGAG,-0.331
4,CACCGGGC,-0.327
5,AGAAAGAG,-0.197
6,ACCTGGCT,-0.172
7,GGACAACC,-0.173
8,CTGAGAGA,0.0113
9,ACGGGTAT,-0.0718
10,ACACTAGG,-0.0519
11,GGAGAGAC,-0.158
12,CACTACGA,0.174
13,CGCGGAAG,-0.0367
14,ACATACGT,0.169
15,CTGGTCGA,-0.0289
16,CAACCTCC,-0.0444
17,CCTTGCGA,-0.33
18,AACCATGA,0.103
19,GAACCTCA,-0.113
20,ATGGAGAC,0.0297
21,GCGGGTAA,-0.237
22,CAAAGAAG,-0.198
23,CTAGCCGC,-0.287
24,ACTAGGAG,0.0251
25,CCACCCGC,-0.244

row,Sequence,binding signal [E-score]
1,CAACACCA,0.05
2,GAGTAGAA,0.202
3,ATACTATG,0.271
4,GTAACGCA,0.0539
5,ATCAAGTG,0.0955
6,GCATACAA,0.155
7,GTACTCCA,-0.0627
8,AACGTTGG,-0.192
9,CCGCGTCA,-0.155
10,GGTCGCCA,-0.183
11,ATTGCTAA,0.231
12,CTGTTTTC,0.0546
13,ACACCCAG,-0.102
14,AATGAGGG,-0.0642
15,ACCATTTC,0.234
16,ATGCGCGG,-0.158
17,AATCTTTC,-0.00113
18,CCAAACGA,0.042
19,AGTACTCA,0.0122
20,CAGACGAG,-0.154
21,CTTGTCCC,-0.205
22,GAGCTGAA,-0.2
